The supplement of paper PMC12217912
The other results are listed elsewhere or left out. The full chains were built here from the parent and the listed change. Inactive controls read about 0.05.

B1: TEV protease; numbered along this chain (parent)
chain: MGESLFKGPRDYNPISSSICHLTNESDGHTTSLYGIGFGPFIITNKHLFRRNNGTLVVQSLHGVFKVKDTTTLQQHLVDGRDMIIIRMPKDFPPFPQKLKFREPQREERICLVTTNFQTKSMSSMVSDTSCTFPSGDGIFWKHWIQTKDGQCGSPLVSTRDGFIVGIHSASNFTNTNNYFTSVPKNFMELLTNQEAQQWVSGWRLNADSVLWGGHKVFMVKPEEPFQPVKEATQL

Variants of: B1
Assay: raw area under fraction-flipped curve 0-4 h after induction (AUC4h, not background-subtracted), DNA-recorder readout of cleavage of the substrate (dimensionless); higher = more cleavage of the substrate by the protease variant
Settings: temperature: 34 °C; time window: 0-4 h after rhamnose induction
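Further: Bxb1 expression induced with 0.2% (w/v) L-rhamnose at OD600 near 0.5, cultures sampled hourly, flipped fraction per protease–substrate barcode pair counted by paired-end Illumina sequencing.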

| Variant | area with substrate INLYFQS | area with substrate NNLYFQS | area with substrate TNLYFQS | area with substrate KNLYFQS | area with substrate LNLYFQS | area with substrate MNLYFQS | area with substrate YNLYFQS | area with substrate PNLYFQS | area with substrate SNLYFQS | area with substrate WNLYFQS |
| --- | --- | --- | --- | --- | --- | --- | --- | --- | --- | --- |
| MGESLFKGPRDYNPISSSICHLTNESDGHTTSLYGIGFGPFIITNKHLFRRNNGTLVVQSLHGVFKVKDTTTLQQHLVDGRDMIIIRMPKDFPPFPQKLKFREPQREERICLVTTNFQTKSMSSMVSDTSCTFPSGDGIFWKHWIQTKDGQCQSPLVSTRDGFIVGIHSASNFTNTNNYFTSVPKNFMELLTNQEAQQWVSGWRLNADSVLWGGHKVFMVKPEEPFQPVKEATQL [G153Q] | 0.0695 | 0.0302 | 0.0301 | – | – | – | – | – | – | – |
| MGESLFKGPRDYNPISSSICHLTNESDGHTTSLYGIGFGPFIITNKHLFRRNNGTLVVQSLHGVFKVKDTTTLQQHLVDGRDMIIIRMPKDFPPFPQKLKFREPQREERICLVTTNFQTKSMSSMVSDTSCTFPSGDGIFWKHWIQTKDGQCGNPLVSTRDGFIVGIHSASNFTNTNNYFTSVPKNFMELLTNQEAQQWVSGWRLNADSVLWGGHKVFMVKPEEPFQPVKEATQL [S154N] | 0.0648 | – | 0.0799 | 0.0935 | 0.0856 | – | – | – | – | – |
| MGESLFKGPRDYNPISSSICHLTNESDGHTTSLYGIGFGPFIITNKHLFRRNNGTLVVQSLHGVFKVKDTTTLQQHLVDGRDMIIIRMPKDFPPFPQKLKFREPQREERICLVTTNFQTKSMSSMVSDTSCTFPSGDGIFWKHWIQTKDGQCGSPLVSTRDGFIVGIHSASNFTNTNNYFTMVPKNFMELLTNQEAQQWVSGWRLNADSVLWGGHKVFMVKPEEPFQPVKEATQL [S182M] | 0.0256 | – | – | – | – | – | – | – | – | – |
| MGESLFKGPRDYNPISSSICHLTNESDGHTTSLYGIGFGPFIITNKHLFRRNNGTLVVQSLHGVFKVKDTTTLQQHLVDGRDMIIIRMPKDFPPFPQKLKFREPQREERICLVTTNFQTKSMSSMVSDTSCTFPSGDGIFWKHWIQTKDGQCGSPLVSTRDGFIVGIHSASNFTNTNNYFTSVPKHFMELLTNQEAQQWVSGWRLNADSVLWGGHKVFMVKPEEPFQPVKEATQL [N186H] | 0.0577 | – | – | – | – | – | – | – | – | – |
| MGESLFKGPRDYNPISSSICHLTNESDGHTTSLYGIGFGPFIITNKHLFRRNNGTLVVQSLHGVFKVKDTTTLQQHLVDGRDMIIIRMPKDFPPFPQKLKFREPQREERICLVTTNFQTKSMSSMVSDTSCTFPSGDGIFWKHWIQTKDGQCGSPLVSTRDGFIVGIHSASNFTNTNNYFTSVPKNFMEFLTNQEAQQWVSGWRLNADSVLWGGHKVFMVKPEEPFQPVKEATQL [L190F] | 0.0751 | 0.0716 | 0.0662 | – | – | 0.0572 | 0.0654 | – | – | – |
| MGESLFKGPRDYNPISSSICHLTNESDGHTTSLYGIGFGPFIITNKHLFRRNNGTLVVQSLHGVFKVKDTTTLQQHLVDGRDMIIIRMPKDFPPFPQKLKFREPQREERICLVTTNFQTKSMSSMVSDTSCTFPSGDGIFWKHWIQTKDGQCGSPLVSTRDGFIVGIHSASNFTNTNNYFTSVPKNFMELLTNQEAQQWVSIWRLNADSVLWGGHKVFMVKPEEPFQPVKEATQL [G202I] | 0.0294 | 0.0567 | – | 0.0647 | – | – | – | 0.0708 | 0.0524 | 0.035 |
| MGESLFKGPRDYNPISSSICHLTNESDGHTTSLYGIGFGPFIITNKHLFRRNNGTLVVQSLHGVFKVKDTTTLQQHLVDGRDMIIIRMPKDFPPFPQKLKFREPQREERICLVTTNFQTKSMSSMVSDTSCTFPSGDGIFWKHWIQTKDGQCGSPLVSTRDGFIVGIHSASNFTNTNNYFTSVPKNFMELLTNQEAQQWVSGWRYNADSVLWGGHKVFMVKPEEPFQPVKEATQL [L205Y] | 0.0708 | – | 0.0489 | – | – | – | 0.0572 | 0.0539 | 0.0772 | 0.0561 |
| MGESLFKGPRDYNPISSSICHLTNESDGHTTSLYGIGFGPFIITNKHLFRRNNGTLVVQSLHGVFKVKDTTTLQQHLVDGRDMIIIRMPKDFPPFPQKLKFREPQREERICLVTTNFQTKSMSSMVSDTSCTFPSGDGIFWKHWIQTKDGQCGSPLVSTRDGFIVGIHSASNFTNTNNYFTSVPKNFMELLTNQEAQQWVSGWRLNADAVLWGGHKVFMVKPEEPFQPVKEATQL [S209A] | 0.0477 | – | 0.0758 | 0.0684 | 0.0726 | – | 0.0622 | – | 0.0593 | – |
| MGESLFKGPRDYNPISSSICHLTNESDGHTTSLYGIGFGPFIITNKHLFRRNNGTLVVQSLHGVFKVKDTTTLQQHLVDGRDMIIIRMPKDFPPFPQKLKFREPQREERICLVTTNFQTKSMSSMVSDTSCTFPSGDGIFWKHWIQTKDGQCGSPLVSTRDGFIVGIHSASNFTNTNNYFTSVPKNFMELLTNQEAQQWVSGWRLNADRVLWGGHKVFMVKPEEPFQPVKEATQL [S209R] | 0.0508 | 0.0602 | 0.0608 | – | – | – | 0.0471 | 0.0785 | – | – |
| MGESLFKGPRDYNPISSSICHLTNESDGHTTSLYGIGFGPFIITNKHLFRRNNGTLVVQSLHGVFKVKDTTTLQQHLVDGRDMIIIRMPKDFPPFPQKLKFREPQREERICLVTTNFQTKSMSSMVSDTSCTFPSGDGIFWKHWIQTKDGQCGSPLVSTRDGFIVGIHSASNFTNTNNYFTSVPKNFMELLTNQEAQQWVSGWRLNADSVLWGGSKVFMVKPEEPFQPVKEATQL [H215S] | 0.0674 | – | – | – | – | – | – | – | – | 0.0496 |
| MGESLFKGPRDYNPISSSICHLTNESDGHTTSLYGIGFGPFIITNKHLFRRNNGTLVVQSLHGVFKVKDTTTLQQHLVDGRDMIIIRMPKDFPPFPQKLKFREPQREERICLVTTNFQTKSMSSMVSDTSCTFPSGDGIFWKHWIQTKDGQCGSPLVSTRDGFIVGIHSASNFTNTNNYFTSVPKNFMELLTNQEAQQWVSGWRLNADSVLWGGHKVIMVKPEEPFQPVKEATQL [F218I] | 0.0523 | 0.0485 | 0.0566 | – | – | 0.0589 | – | – | – | 0.0638 |
| MGESLFKGPRDYNPISSSICHLTNESDGHTTSLYGIGFGPFIITNKHLFRRNNGTLVVQSLHGVFKVKDTTTLQQHLVDGRDMIIIRMPKDFPPFPQKLKFREPQREERICLVTTNFQTKSMSSMVSDTSCTFPSGDGIFWKHWIQTKDGQCGSPLVSTRDGFIVGIHSASNFTNTNNYFTSVPKNFMELLTNQEAQQWVSGWRLNADSVLWGGHKVFMVKPEEPFQPVKEAYQL [T233Y] | 0.0584 | – | 0.0837 | – | – | – | – | 0.0536 | 0.0642 | 0.0772 |

Same assay, conditions: temperature: 34 °C; time window: 0-4 h after rhamnose induction

| Variant | area with substrate QNLYFQS | area with substrate VNLYFQS |
| --- | --- | --- |
| MGESLFKGPRDYNPISSSICHLTNESDGHTTSLYGIGFGPFIITNKHLFRRNNGTLVVQSLHGVFKVKDTTTLQQHLVDGRDMIIIRMPKDFPPFPQKLKFREPQREERICLVTTNFQTKSMSSMVSDTSCTFPSGDGIFWKHWIQTKDGQCGSPLVSTRDGFIVGIHSASNFTNTNNYFTSVPKNFMELLTNQEAQQWVSGWRYNADSVLWGGHKVFMVKPEEPFQPVKEATQL [L205Y] | 0.0642 | 0.071 |
| MGESLFKGPRDYNPISSSICHLTNESDGHTTSLYGIGFGPFIITNKHLFRRNNGTLVVQSLHGVFKVKDTTTLQQHLVDGRDMIIIRMPKDFPPFPQKLKFREPQREERICLVTTNFQTKSMSSMVSDTSCTFPSGDGIFWKHWIQTKDGQCGSPLVSTRDGFIVGIHSASNFTNTNNYFTSVPKNFMELLTNQEAQQWVSGWRLNADSVLWGGSKVFMVKPEEPFQPVKEATQL [H215S] | – | 0.0616 |
